# Measurements: the supplement of paper PMC10037445
# Whole data set: some 2,900 compounds, median “NF-kB SEAP reporter activity, fold change vs agonist alone” near 0.99, cut for the highest 2% near 2.6. The list shows a part of the results.
# Tests used:
# RAW-Dual [1] = assay: NF-kB SEAP reporter activity, fold change vs agonist alone; higher = enhanced NF-kB activity; conditions: library stock concentration (final ~1000-fold dilution): 10 mM
# In short: (§1)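 Cytotoxic wells were those whose IncuCyte confluency was below 70% of agonist controls in both mask sets. The cells were RAW-Dual macrophages at 50,000 cells/well in DMEM on 384-well plates, dosed with 50 nL of library stock by pin tool, stimulated with a PRR agonist 1 h later, and kept at 37 °C, 5% CO2 for 20 hours. IRF and NF-κB reporter activity, as fold change over agonist-alone wells, came from supernatant read by QuantiLuc luminescence and QuantiBlue absorbance, respectively.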
# RAW-Dual [2] = assay: NF-kB SEAP reporter activity, fold change vs agonist alone; cytotoxicity flag (confluency mask): not cytotoxic; higher = enhanced NF-kB activity
# In short: as §1
# RAW-Dual [3] = assay: NF-kB SEAP reporter activity, fold change vs agonist alone; cytotoxicity flag (confluency mask): cytotoxic (confluency <70% of control); higher = enhanced NF-kB activity
# In short: as §1
# [4] = cytotoxicity flag (confluency mask): not cytotoxic, agonist: Imiquimod (TLR7) […]
# [5] = cytotoxicity flag (confluency mask): not cytotoxic, agonist: MPLA (TLR4) […]
# [6] = agonist: ODN 1826 (TLR9) 0.5 ug/mL
# [7] = agonist: Pam2CSK4 (TLR2/6) 0.1 ug/mL
# [8] = agonist: Pam3CSK4 (TLR2/1) 0.1 ug/mL
structure (smiles),measurement,setting,value
O=[N+]([O-])c1ccc2c(c1)S(=O)(=O)C=C2,NF-kB SEAP reporter activity,RAW-Dual [1]; [4],0.217
same,NF-kB SEAP reporter activity,RAW-Dual [1]; [5],0.231
O=[N+]([O-])c1ccc2c(c1)S(=O)(=O)C=C2 (library stock concentration (final ~1000-fold dilution): 10 mM),NF-kB SEAP reporter activity,RAW-Dual [2]; agonist: LPS (TLR4) 0.1 ug/mL,0.192
same,NF-kB SEAP reporter activity,RAW-Dual [2]; [6],0.17
same,NF-kB SEAP reporter activity,RAW-Dual [2]; [7],0.0667
same,NF-kB SEAP reporter activity,RAW-Dual [2]; [8],0.127
CC(=O)NC(CS)C(=O)O (stereo not drawn) (library stock concentration (final ~1000-fold dilution): 10 mM),NF-kB SEAP reporter activity,RAW-Dual [2]; agonist: LPS (TLR4) 0.1 ug/mL,1.37
same,NF-kB SEAP reporter activity,RAW-Dual [2]; [6],1.13
same,NF-kB SEAP reporter activity,RAW-Dual [2]; [7],1.13
same,NF-kB SEAP reporter activity,RAW-Dual [2]; [8],1.28
CC(=O)NC(CS)C(=O)O (stereo not drawn),NF-kB SEAP reporter activity,RAW-Dual [1]; [4],1.01
same,NF-kB SEAP reporter activity,RAW-Dual [1]; [5],1.24
COc1cc2c(c(O)c1OC)-c1c(cc(OC)c(OC)c1OC)CC(C)C(C)C2 (stereo not drawn),NF-kB SEAP reporter activity,RAW-Dual [1]; [4],1.01
same,NF-kB SEAP reporter activity,RAW-Dual [1]; [5],1.21
COc1cc2c(c(O)c1OC)-c1c(cc(OC)c(OC)c1OC)CC(C)C(C)C2 (stereo not drawn) (library stock concentration (final ~1000-fold dilution): 10 mM),NF-kB SEAP reporter activity,RAW-Dual [2]; agonist: LPS (TLR4) 0.1 ug/mL,1.15
same,NF-kB SEAP reporter activity,RAW-Dual [2]; [6],0.876
same,NF-kB SEAP reporter activity,RAW-Dual [2]; [7],0.82
same,NF-kB SEAP reporter activity,RAW-Dual [2]; [8],1.02
CCC(=O)N1CCC(Nc2ncnc3c2CN(c2cnc(OC)c(C(F)(F)F)c2)CC3)C1 (stereo not drawn),NF-kB SEAP reporter activity,RAW-Dual [1]; [4],1.1
same,NF-kB SEAP reporter activity,RAW-Dual [1]; [5],1.13
CCC(=O)N1CCC(Nc2ncnc3c2CN(c2cnc(OC)c(C(F)(F)F)c2)CC3)C1 (stereo not drawn) (library stock concentration (final ~1000-fold dilution): 10 mM),NF-kB SEAP reporter activity,RAW-Dual [2]; agonist: LPS (TLR4) 0.1 ug/mL,1.49
same,NF-kB SEAP reporter activity,RAW-Dual [2]; [6],1.08
same,NF-kB SEAP reporter activity,RAW-Dual [2]; [7],0.957
same,NF-kB SEAP reporter activity,RAW-Dual [2]; [8],1.28
COc1ccc(S(=O)(=O)NCc2ccc(C(=O)NCCc3ccc(Cl)cn3)cc2)cc1,NF-kB SEAP reporter activity,RAW-Dual [1]; [4],0.318
same,NF-kB SEAP reporter activity,RAW-Dual [1]; [5],1.19
COc1ccc(S(=O)(=O)NCc2ccc(C(=O)NCCc3ccc(Cl)cn3)cc2)cc1 (library stock concentration (final ~1000-fold dilution): 10 mM),NF-kB SEAP reporter activity,RAW-Dual [2]; agonist: LPS (TLR4) 0.1 ug/mL,1.36
same,NF-kB SEAP reporter activity,RAW-Dual [2]; [6],1.15
same,NF-kB SEAP reporter activity,RAW-Dual [2]; [7],0.849
same,NF-kB SEAP reporter activity,RAW-Dual [2]; [8],1.49
COc1nc(N)nc2c1ncn2C1OC(CO)C(O)C1O (stereo not drawn) (library stock concentration (final ~1000-fold dilution): 10 mM),NF-kB SEAP reporter activity,RAW-Dual [2]; agonist: LPS (TLR4) 0.1 ug/mL,1.43
same,NF-kB SEAP reporter activity,RAW-Dual [2]; [6],0.996
same,NF-kB SEAP reporter activity,RAW-Dual [2]; [7],1.08
same,NF-kB SEAP reporter activity,RAW-Dual [2]; [8],1.23
COc1nc(N)nc2c1ncn2C1OC(CO)C(O)C1O (stereo not drawn),NF-kB SEAP reporter activity,RAW-Dual [1]; [4],0.924
same,NF-kB SEAP reporter activity,RAW-Dual [1]; [5],0.994
COc1cc2c(cc1OC)CN(CCc1ccc(NC(=O)c3cc(OC)c(OC)cc3NC(=O)c3cnc4ccccc4c3)cc1)CC2,NF-kB SEAP reporter activity,RAW-Dual [1]; [4],0.976
same,NF-kB SEAP reporter activity,RAW-Dual [1]; [5],1.03
COc1cc2c(cc1OC)CN(CCc1ccc(NC(=O)c3cc(OC)c(OC)cc3NC(=O)c3cnc4ccccc4c3)cc1)CC2 (library stock concentration (final ~1000-fold dilution): 10 mM),NF-kB SEAP reporter activity,RAW-Dual [2]; agonist: LPS (TLR4) 0.1 ug/mL,1.34
same,NF-kB SEAP reporter activity,RAW-Dual [2]; [6],1.45
same,NF-kB SEAP reporter activity,RAW-Dual [2]; [7],1.25
same,NF-kB SEAP reporter activity,RAW-Dual [2]; [8],1.19
CN1CCC(c2c(O)cc(O)c3c(=O)cc(-c4ccccc4Cl)oc23)C(O)C1 (stereo not drawn),NF-kB SEAP reporter activity,"RAW-Dual [1]; cytotoxicity flag (confluency mask): cytotoxic (confluency <70% of control), agonist: Imiquimod (TLR7) […]",0.203
same,NF-kB SEAP reporter activity,"RAW-Dual [1]; cytotoxicity flag (confluency mask): cytotoxic (confluency <70% of control), agonist: MPLA (TLR4) […]",0.217
CN1CCC(c2c(O)cc(O)c3c(=O)cc(-c4ccccc4Cl)oc23)C(O)C1 (stereo not drawn) (library stock concentration (final ~1000-fold dilution): 10 mM),NF-kB SEAP reporter activity,RAW-Dual [3]; agonist: LPS (TLR4) 0.1 ug/mL,0.255
same,NF-kB SEAP reporter activity,RAW-Dual [3]; [6],0.179
same,NF-kB SEAP reporter activity,RAW-Dual [3]; [7],0.153
same,NF-kB SEAP reporter activity,RAW-Dual [3]; [8],0.155
